Results taken from the supplement of paper PMC10126150.
Values marked as one replicate rest on one cluster of the flow cell; about a third of the high ones do not repeat.

Tested on: ATP
Experiment: switch fluorescence ratio, 500 uM ATP over buffer (Cy3 cluster intensity, sum of 5 cycles each) (fold (ratio)); higher = stronger signal-on switching upon ATP binding; sequences stand for … in TCGTCGGCAGCGTCAGATGTGTATAAGAGACAGTTTTTTTTTTTTTTTTTTTTTTTTT…TC
Conditions: aptamer strand: ATP DNA aptamer (quencher-CACCTGGGGGAGTATTGCGGAGGAAGG + anchor), 100 nM annealed; ATP concentration: 500 uM; one replicate
In short: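 Between each of five buffer/ATP cycles, the flow-cell was stripped with NaOH and re-annealed. Each cycle imaged Cy3-labelled switching-strand clusters, annealed to 100 nM quencher-labelled ATP aptamer on a modified Illumina MiSeq flow-cell, first in selection buffer and then after 15 min with 500 uM ATP at 22 °C. The fluorescence ratio is summed target-cycle over summed buffer-cycle Cy3 intensity per cluster, averaged per switch-domain sequence, with clusters outside 100-1000 RFU excluded.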
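Note: ATP exposure 15 min at 22 °C before imaging.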

Sequence | switch fluorescence ratio
GTAATATAGT | 0.989
GGTAAAGAAT | 0.999
CTAACGACTA | 1.1
ACAGCCGTCG | 1.04
AGCATCTGTG | 0.998
AAGTATACT | 1.04
ATTTGATGAA | 0.978
TGTTCGGGGC | 1.02
AATGCTAGGT | 0.993
CGATTAACGC | 1.09
GCTAGGAGCT | 0.957
CGAGGCTATG | 1.25
ATGCCGGTAC | 1.02
TTAGAGATGA | 0.997
GGTGATGACT | 1.01
TCGGATATAT | 1
TAGGTGTCTA | 0.987
GGTGCGTGTA | 1.18
CGGCTATGTA | 1.01
GAACTTAATT | 1.02
TTCTGGCTCC | 1.78
AGCTTGGTCT | 1.04
TTGCACAGA | 1.02

Sequence | switch fluorescence ratio
TGAACCGCAC | 2.94
AAAGACTGGG | 1.02
TGAGGAGCGT | 0.998
ATCATGTTCT | 0.983
GCGTGGAATG | 0.965
TTTATTGCCT | 1.02
TTGTAGACGG | 0.99
GTTTACTGG | 0.963
CATCCAACCC | 1.08
TATGTGATC | 1
CCAAGGGGTA | 1.02
TTTCAAAAA | 0.975
TTGTAGGCGT | 0.968
CGTCTTGTTG | 0.986
TAAGTAAGAT | 1.07
TTGCGTAATG | 1.47
GCAGGATCCC | 1.07
TTAAAATCCA | 0.972
ACCTCGCGCT | 1.32
GATCTAAGAA | 1.02
TACCCTTTGG | 1.02
GAATGTCTTT | 0.987
CGTTTGTCTG | 1

Sequence | switch fluorescence ratio
TATTCCATTA | 0.997
GCTCCCAACG | 1.63
GGCTCAGACA | 1.01
TGGAGGTCGA | 0.978
AGTCATCCCG | 1.03
AAGATACTTC | 1.02
ACCGCTTCAA | 1.09
TCTTGTAGGT | 1.02
TCCCCATTCT | 1.02
CGGGGGTGCG | 0.986
GGGCGAAATC | 1.84
CCATGTTGGG | 1.05
TATAGCACGC | 1.06
TACAGCTGAG | 1.01
TCAGTTCTGG | 1.01
ACAATCGACA | 1.06
CGCGGGATCT | 1.07
TTTTGAGTCT | 0.94
ACATGAAAGC | 1.04
TAGCACAGGC | 1.09
GCCTTTTAGA | 1
CGGGACGCTG | 0.957
GGATTAGAGG | 0.969

Sequence | switch fluorescence ratio
AACCTAGTGG | 1.02
GTACTCATTG | 0.97
CATAATCGAC | 1.09
CAAATCGGA | 1.02
TATTACTCAT | 1.04
TTAGAGAGCT | 1.07
CCGAACAGTG | 1.32
TGCGTTAACC | 0.998
ATACAGTTAA | 1.02
GGATCCTAAC | 0.99
TCTTAATGGA | 0.998
GCGTCCTCTA | 1.06
TGGCCTTTAG | 1.03
TTGGGAGTAG | 1.01
ATGTGCGG | 0.99
GATTAATTTA | 1.01
AACCAGGAC | 1.06
ACCTGCTCGT | 1.06
TATGCAATTT | 1.02
ACGTTTTGCA | 1.06
ACGGTCTG | 1
AACACGTTG | 1.01
TCGTCAAAAG | 1.01

Sequence | switch fluorescence ratio
TTTAAGTT | 0.915
CTCCTGAGTT | 1.07
CGTCTGCGCT | 0.966
CTTGGTGACC | 1.03
TTTGCACTTA | 1.12
TACGACGCCT | 1.96
GTAATCACAT | 0.995
TCTATACTAA | 1.04
TCCTATGTTA | 1.05
CATAGTACTT | 1.04
GGTAGCGCAT | 1.05
TGCTTTTAGT | 0.993
CCGAGGGCGA | 1.9
CCTCGGGCCA | 1.73
TTTTTGCAAG | 1.06
CAAATGCCGT | 1.05
TATCTATGTG | 0.976
TGTGGTAA | 1.02
CCGGGATCTC | 2.17
CGCCGAGAGG | 1
TTACGCGTTT | 1.01
TAATAGGATT | 1
GGGTGAGGGC | 1.04

Sequence | switch fluorescence ratio
CAGTCGACTC | 1
TCATCACTTG | 1.03
TAGGGAGGAG | 0.997
AACCAAATCA | 1.02
CCTGGGCAAC | 4.27
TAACAATAGG | 0.988
ATGCCTGTTA | 0.982
AGTTTGCG | 0.978
ACGGGCTGTT | 0.967
ACCTTATAGT | 1.01
TAGAGAAGC | 1.05
GGTTAATGAT | 1.02
TATCTAACT | 1.04
ATTATCGTTT | 0.953
AGGGAGAAAG | 0.974
CGCTTAATTT | 0.984
AATTTGCTGT | 1
CCCTCAAGGG | 1
TTGGACACGG | 1.04
CGCGGCTCTG | 1.05
CCCATGTGTC | 1.48
CAGGGGGCCC | 0.995
TGACGACACA | 1.64

Sequence | switch fluorescence ratio
TCCGGGAGGT | 0.99
AACTCGCGGG | 0.995
ATAATCAGTC | 1.1
TAAATAGAT | 1.01
TGGTGAATGT | 1.11
AGACAATAAG | 1
CTTTGTATAG | 1.17
AGTTACTCAG | 1.06
ATGTGATCCC | 1.02
CCGAACCGGG | 0.992
CGTGTGAAAT | 1.01
ATAATAAAAC | 0.967
ATAATAAA | 0.956
CTCGAAGTTA | 0.961
TCTTATCATG | 1.02
CTCAGAGGGG | 1.03
GCCTCGAGGC | 0.992
ACCTTGTTGG | 0.992
AGCAGTAGGG | 1.03
CTCCAGACTA | 1.11
